Paper PMC4336329 (PLoS ONE, 2015)
The campaign covered roughly 310,000 compounds. About 2,200 (0.71%) showed an effect of 50% or more. The effect is printed as a negative number. Some of the results follow.

Biological target: human ether-à-go-go-related gene (hERG) potassium channel (human, UniProt Q12809)
Assay: primary screen, population patch clamp on CHO cells stably expressing hERG

Chain of human ether-à-go-go-related gene (hERG) potassium channel (Q12809 whole entry, looked up): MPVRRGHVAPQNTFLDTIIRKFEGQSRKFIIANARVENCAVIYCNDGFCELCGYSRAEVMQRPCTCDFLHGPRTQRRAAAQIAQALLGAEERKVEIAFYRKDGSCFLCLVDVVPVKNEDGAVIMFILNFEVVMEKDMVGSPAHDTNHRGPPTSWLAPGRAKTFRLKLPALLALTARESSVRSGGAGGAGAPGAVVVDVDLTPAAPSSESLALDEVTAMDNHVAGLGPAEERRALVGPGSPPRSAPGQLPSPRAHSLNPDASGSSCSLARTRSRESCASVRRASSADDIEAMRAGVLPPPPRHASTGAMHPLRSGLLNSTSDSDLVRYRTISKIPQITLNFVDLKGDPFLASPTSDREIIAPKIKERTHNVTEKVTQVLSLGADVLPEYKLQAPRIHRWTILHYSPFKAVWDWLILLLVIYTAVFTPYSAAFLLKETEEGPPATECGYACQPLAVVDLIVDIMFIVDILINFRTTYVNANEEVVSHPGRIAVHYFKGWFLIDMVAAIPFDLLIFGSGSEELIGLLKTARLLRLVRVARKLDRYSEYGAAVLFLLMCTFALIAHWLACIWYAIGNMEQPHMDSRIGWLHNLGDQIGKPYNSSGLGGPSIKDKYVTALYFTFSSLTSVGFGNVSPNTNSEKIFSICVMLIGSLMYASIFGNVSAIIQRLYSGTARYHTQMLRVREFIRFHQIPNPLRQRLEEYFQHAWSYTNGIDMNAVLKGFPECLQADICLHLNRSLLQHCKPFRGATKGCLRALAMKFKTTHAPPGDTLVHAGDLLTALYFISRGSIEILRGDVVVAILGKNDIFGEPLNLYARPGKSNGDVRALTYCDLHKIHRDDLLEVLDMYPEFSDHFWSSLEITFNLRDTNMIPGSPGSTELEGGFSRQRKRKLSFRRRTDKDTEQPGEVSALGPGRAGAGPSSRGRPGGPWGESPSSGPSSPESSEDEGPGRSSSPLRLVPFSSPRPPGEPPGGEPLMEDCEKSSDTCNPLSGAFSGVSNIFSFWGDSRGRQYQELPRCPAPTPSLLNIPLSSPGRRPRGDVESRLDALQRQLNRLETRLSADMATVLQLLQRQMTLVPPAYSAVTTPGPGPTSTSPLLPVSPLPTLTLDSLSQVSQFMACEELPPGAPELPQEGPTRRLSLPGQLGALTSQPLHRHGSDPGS

Compound	hERG current change (%, negative = inhibition) at 1uM
COC(=O)c1c(NC(=O)CC2Nc3ccccc3NC2=O)sc(C)c1C (stereo not drawn)	7.43%
CCN(CC)CCN(Cc1cc2cc3c(cc2[nH]c1=O)OCO3)C(=S)NCCOC	11.1%
Cc1ccc(S(=O)(=O)N2CCOCC2)c(C)c1NS(C)(=O)=O	13.3%
COc1cc(/C(C)=N/NC(=O)CN2CCN(S(=O)(=O)c3ccc(C)cc3)CC2)ccc1O	6.69%
S=c1[nH]nc(C2CCCCC2)n1/N=C/c1cccc(Br)c1	6.52%
CCOc1ccc(C2C(C#N)=C(C)NC3=C2C(=O)c2ccccc23)cc1 (stereo not drawn)	-2.53%
Cc1sc2nc(C3CC3)nc(SCC(=O)N3CCc4ccccc4C3)c2c1C	11.7%
COc1ccc(C(=O)COC(=O)COc2ccc(C)c(C)c2)cc1	17.4%
Fc1cccc(Cc2noc(CN3CCCCC3c3ccccn3)n2)c1 (stereo not drawn)	4.78%
COCCn1nnnc1CN(CCc1ccc(OC)c(OC)c1)Cc1cc2ccc(C)cc2[nH]c1=O	-12%
Cc1cccc(C(=O)N2CCC(=O)N(C(COCc3ccc(Cl)cc3)Cc3ccccc3)CC2)c1 (stereo not drawn)	7.32%
CCOC(=O)C(NCc1ccccc1)(NC(=O)c1ccccc1)C(F)(F)F (stereo not drawn)	12.5%
Cc1noc(/C=C/c2nn(C)cc2Cl)c1[N+](=O)[O-]	15.9%
O=C(NC(=S)Nc1ccccc1O)c1cncc(Br)c1	22.5%
Nc1nonc1C(=Nc1ccccc1)NO	12.9%
COc1ccccc1-c1nc(-c2ccc(Br)cc2)no1	11.3%
Cc1nn(-c2ccccc2)c(C)c1C(=O)Oc1ccccc1	9.28%
COc1ccc(/C=C2\SC(=S)N(CCC(=O)Nc3cccc(C(=O)O)c3)C2=O)cc1	14.9%
CC(=O)NC1C(=O)N(C)c2ccc(Br)cc21 (stereo not drawn)	2%
COc1ccc(CC(=O)Nc2ccc(-c3nnc(-c4ccc(C)cc4)o3)cc2)cc1	15.3%
COc1cc(-c2[nH]ncc2CN2CCN(Cc3cccs3)CC2)cc(OC)c1OC	0.976%
O=C(O)c1ccc(NS(=O)(=O)c2ccc3c(c2)C(=O)c2ccccc2C3=O)cc1	13.6%

Compound	hERG current change (%, negative = inhibition) at 1uM
CC(C)(C)c1ccccc1NC(=O)Cn1c(=O)cnc2ccccc21	-0.714%
O=C(O)c1cccc2c1C(=O)c1ccc(Cl)cc1S2(=O)=O	15.6%
CCCn1c(N)c(C(=O)CSc2nncs2)c(=O)[nH]c1=O	6.62%
Cc1cc(NC(=O)c2ccc(S(=O)(=O)Nc3ccccc3)cc2)no1	10.8%
Cc1ccc(-n2nnnc2SCC(=O)Nc2ccccc2-c2ccccc2)cc1C	2.73%
CC(Oc1ccc2ccc(=O)oc2c1)C(=O)N1CCOCC1 (stereo not drawn)	9.75%
Cn1nc(-c2ccc(Cl)cc2)c2cc(C(=O)N3CCN(c4ccccn4)CC3)sc21	13%
Cc1cc(C)cc(Oc2ncnc3c2ncn3Cc2c(Cl)cccc2Cl)c1	-4.86%
COCCn1c(C)cc(C(=O)COC(=O)C2CC(=O)N(CCc3ccc(OC)c(OC)c3)C2)c1C (stereo not drawn)	4.75%
COc1ccc(N2CCN(CC(O)COc3ccc4c(c3)CCC4)CC2)cc1.Cl (stereo not drawn)	-17.6%
CC(=O)Oc1ccc(-c2cccc(C(=O)OCC(=O)N(C)c3ccccc3)c2)cc1	-0.992%
O=S(=O)(NC1CCCCC1Nc1ccccc1)c1ccccc1 (stereo not drawn)	1.52%
O=C1CN(C(=O)c2ccccc2)c2ccccc2N1	3.57%
CC(C)C[C@H](NC(=O)OC(C)(C)C)C(=O)N1CCC(C(=O)N[C@@H](Cc2c[nH]c3ccccc23)C(=O)O)CC1	11.2%
Cc1ccc2nc(-c3ccccc3)c(CN3CCN(c4ccccc4F)CC3)n2c1	16.1%
CCCCCCCCCCCCCCCC[n+]1cccc(C(=O)N(CC)CC)c1.[Br-]	4.44%
[Br-].c1ccc(-c2c[n+]3c(n2-c2ccccc2)CCC3)cc1	6.4%
O=C(CSc1ccc2nnc(-c3cccnc3)n2n1)Nc1cccc(F)c1	-9.62%
Cc1cc(C)nc(/N=C(\N)Nc2ccc([N+](=O)[O-])cc2)n1	-3.99%
COc1ccc(-c2nc(CS(=O)(=O)CC(=O)NCc3ccc(F)cc3)c(C)o2)cc1	14.1%
Cc1cccc(C)c1Nc1nnc(SCC(=O)NC2CCS(=O)(=O)C2)s1 (stereo not drawn)	-0.271%
Cc1ccc(S(=O)(=O)Nc2ccc(Oc3cccnc3)nc2)cc1	14.5%

Compound	hERG current change (%, negative = inhibition) at 1uM
CCOc1ccc2[nH]c3c(NCCN(CC)CC)ncnc3c2c1	-44.9%
Cc1cc(/C=C2\SC(=S)N(C)C2=O)c(C)n1-c1cccc(O)c1	-0.007%
CCCn1cnc2cc(NCc3cccc(OC)c3)ccc21	-33.6%
Cc1cc(N)n(-c2ccc(Cl)cc2)n1	12.6%
Cc1ccccc1NC(=O)CN1C(=O)C2C3CC(C(Br)C3Br)C2C1=O (stereo not drawn)	11.2%
Cc1csc2c(N(C)CCO)ncnc12	17.1%
C/C(=N\NC(=O)c1ccc([N+](=O)[O-])cc1)c1c(O)cc(C)oc1=O	20.5%
COC(=O)C1=C(C)NC(C)=C(C(=O)OC)C1c1ccc(OC(=O)c2oc3ccccc3c2C)c(OC)c1	12.1%
CCCCCCc1cc2cc(C(N)=O)c(=N)oc2cc1O	-8.07%
O=C(c1ccccn1)N(Cc1ccco1)C1(C(=O)NC2CCCCC2)CCCCC1	11.2%
O=C(Nc1ccc2c(c1)OCO2)Oc1ccccc1	5.63%
CCOc1ccc(CCNC(=O)COC(=O)Cn2cnc3c2c(=O)n(C)c(=O)n3C)cc1OCC	9.55%
CCCCCn1c(CN2CCN(c3cccc(Cl)c3)CC2)nc2c1c(=O)n(C)c(=O)n2C	-5.11%
COc1ccc(C(=O)NCc2nnc(SCC(=O)Nc3ccc4c(c3)OCO4)o2)cc1	13%
CCCOC(=O)C1=C(C)NC2=C(C(=O)CCC2)C1c1cccs1 (stereo not drawn)	8.64%
COc1ccc(C(=O)CN2C(=O)NC3(CCc4ccccc43)C2=O)c(OC)c1 (stereo not drawn)	8.22%
CC(=O)N1c2ccc(S(=O)(=O)N3CCCC3C(=O)Nc3ccc(C)cc3)cc2CC1C (stereo not drawn)	-7.07%
CCCOc1ccccc1NC(=O)CC1Nc2ccccc2NC1=O (stereo not drawn)	12.2%
CCc1ccc2c(c1)C(NC(C)=O)C(=O)N2CCN1CCOCC1.Cl (stereo not drawn)	5.3%
COc1ccc(NS(=O)(=O)c2ccc3c(c2)NC(=O)CO3)cc1	11.8%
O=C(c1ccc2snnc2c1)N1CCN(c2ccccn2)CC1	-0.237%
O=C1/C(=C\c2ccsc2)NC(=S)N1c1ccccc1	9.16%

Compound	hERG current change (%, negative = inhibition) at 1uM
C/C=C/C(=O)OCC(=O)Nc1ccc(OC)c(OC)c1	2.95%
CC1CCCC(C)N1C(=O)COC(=O)c1c[nH]c2ccccc12 (stereo not drawn)	9.94%
O=C1CC2(CCN(C(=O)c3cccc(F)c3)CC2)Oc2ccccc21	-32.6%
C=C(C)C1CC=C(C)/C(=N/NC(=O)COc2ccccc2C)C1 (stereo not drawn)	4.71%
Cc1ccccc1CN1C(=O)c2ccccc2S(=O)c2ccc(C(=O)NCCCN3CCOCC3)cc21 (stereo not drawn)	-14.3%
COc1cc(/C=N/Nc2nc(N3CCCC3)nc(N3CCCC3)n2)ccc1OCc1ccccc1F	14.2%
CSc1nc2ccc(NS(=O)(=O)c3c(Cl)cccc3Cl)cc2s1	6.4%
O=C(CSCc1cccc(CSCC(=O)Nc2ccc3ccccc3c2)n1)Nc1ccc2ccccc2c1	8.91%
COc1cccc(Nc2nc(Nc3ccc(Cl)c(C(=O)O)c3)nc(C)c2[N+](=O)[O-])c1	9.52%
CC(=O)N(C(C)=O)N1C(=O)c2cccc3c(N4CCOCC4)ccc(c23)C1=O	4.95%
Cc1ccccc1-n1nnnc1SC1CCOC1=O (stereo not drawn)	8.46%
CC(OC(=O)c1ccc(S(=O)(=O)N(C)c2ccccc2)cc1)C(=O)NCCC1=CCCCC1 (stereo not drawn)	8.78%
Cc1cccc(C)c1-n1c(C)cc(/C=N/NC(N)=S)c1C	9.78%
COc1ccccc1Nc1ccc(C(=O)O)cc1[N+](=O)[O-]	11.6%
Cl.Fc1ccc(C2CCNCC2COc2ccc3c(c2)OCO3)cc1 (stereo not drawn)	6.32%
CN(C)c1ccc(CNn2cnnc2SCc2ccc(F)cc2)cc1	0.965%
COc1cccc(CN2CCN(Cc3ccco3)CC2)c1.O=C(O)C(=O)O	18%
CC(C)(C)NC(=O)C(c1cccs1)N(Cc1cccs1)C(=O)c1csnn1 (stereo not drawn)	-5.61%
Cc1ccc(-n2c(C)n[nH]c2=S)cc1C	10.8%
COc1ccc(-c2cn(CCC(=O)O)c(C)n2)cc1	7.25%
CN(C)c1ccc(/C=N/N2C(=S)SC(C)(C)C2N(O)C(=O)Nc2ccc([N+](=O)[O-])cc2)cc1 (stereo not drawn)	5.86%
